The campaign covered roughly 340,000 compounds. About 6,900 (2%) were called active. Cut-off read from the data, not from the text of the source: active = inhibition above about 30%; inactive = below that, where a call was filed. Only a part is listed here, and it is no random draw. Entries without a call were filed so in the source.
These compounds were tested against D(2) dopamine receptor (Homo sapiens) (UniProt P14416) (assay: HTS Assay for Allosteric Antagonists of the Human D2 Dopamine Receptor: Primary Screen for Antagonists). Settings: HEK293 TREx D2 cells, calcium flux, dopamine EC80; at 10 µM; stronger effect = higher value.
Method in brief: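 Antagonism is scored as inhibition of an EC80 dopamine-evoked calcium signal in a force-coupled, tetracycline-inducible HEK293 T-REx D2 line, with compound present 180 s before agonist.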
Note: 0% is about no effect.

Sequence of UniProt P14416 (P14416 whole entry, looked up): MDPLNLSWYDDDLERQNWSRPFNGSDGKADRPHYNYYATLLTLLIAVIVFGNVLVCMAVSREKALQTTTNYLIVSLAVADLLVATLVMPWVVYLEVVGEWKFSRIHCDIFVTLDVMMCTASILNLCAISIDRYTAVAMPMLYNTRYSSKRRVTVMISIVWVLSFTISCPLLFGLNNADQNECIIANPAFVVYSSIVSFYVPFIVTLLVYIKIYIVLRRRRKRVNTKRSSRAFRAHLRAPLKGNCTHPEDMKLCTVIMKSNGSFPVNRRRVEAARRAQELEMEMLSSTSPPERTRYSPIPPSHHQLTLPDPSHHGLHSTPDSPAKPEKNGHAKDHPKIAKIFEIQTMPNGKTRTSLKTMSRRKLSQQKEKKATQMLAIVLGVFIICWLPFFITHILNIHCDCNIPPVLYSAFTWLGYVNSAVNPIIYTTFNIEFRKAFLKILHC

SMILES | inhibition
CN1CCN(c2c(F)cc([N+](=O)[O-])c(N)c2Br)CC1 | active: 35.1%
C=Cc1ccc(Cn2c(C)c(CNCCc3cc(OC)ccc3OC)c(C(=O)O)c2C)cc1 | -2.17%
CCN(CC)c1ccc(CN2CC=C(c3ccc(F)cc3)CC2)cc1 | active: 40.7%
Clc1ccc2c(c1)C(c1ccccc1Cl)=NCc1nnc(N3CCN(CCOc4ccccc4)CC3)n1-2 | active: 64.9%
CCCCc1nn2c(=O)cc(COC(=O)Cc3ccccc3)nc2s1 | 1.96%
c1ccc(CN2CCc3nc4ccccc4cc3C2)cc1 | active: 76.4%
CCN(CC)CCCOC(=O)C(OC(C)C)(c1ccccc1)c1ccccc1 | active: 57.1%
Cc1ccc(NC(=O)CN2C(=O)CN=C(c3ccccc3)c3ccccc32)cc1 | 13%
COc1cc(CN2CC=C(c3ccc(F)cc3)CC2)cc(OC)c1 | active: 81.1%
Cc1ccccc1-n1nc(C)c2c1NC(=O)CSC2c1ccc(N(C)C)cc1 (stereo not given) | -2.12%
CCCCCc1nc2ccccc2c(=O)n1-c1ccc(C)cc1 | 4.26%
Cc1ccc(-c2cc(-c3ccccc3)cc(-c3ccccc3)[n+]2-c2ccccc2)cc1 | active: 38.2%
Cc1ccc(CN2C(=O)c3ccccc3Sc3ccc(C(=O)N4CCC5(CC4)OCCO5)cc32)cc1 | 0.994%
COc1ccc(-n2c(/C=C\c3ccccc3F)nc3ccccc3c2=O)cc1OC | -7.44%
Nc1c(C(=O)Nc2ccc(Cl)c(C(F)(F)F)c2)sc2nc3c(cc12)N1CCC3CC1 | 2.68%
NC1CCc2cc(O)c(O)cc2C1 (stereo not given) | active: 101%
CC(C)c1nn2c(=O)cc(COC(=O)Cc3ccccc3)nc2s1 | -21.6%
CCCCOc1ccc(CCN)cc1Cl | active: 41.8%
C/C=C(\C)C(=O)OC1C(C)=C2C(C1OC(=O)CCCCC)C(C)(OC(C)=O)CC(OC(=O)CCC)C1(O)C2OC(=O)C1(C)O (stereo not given) | active: 35.9%
CN1CCN(c2c[nH]c(=O)[nH]c2=O)CC1 | active: 35.6%

SMILES | inhibition
O=C1CN=C(c2ccccc2Cl)c2cc(Cl)ccc2N1Cc1cccc(Cl)c1 | -6.14%
Cc1ccc(NC(=O)c2cccn(Cc3ccccc3C)c2=O)c(C)c1 | 15.9%
Cc1ccc(NC(=O)Cn2cc(C(=O)c3ccccc3)c3ccccc32)cc1 | -3.69%
Cn1c(=O)n(C)c2cc(CNCCc3ccc(F)cc3)ccc21 | 8.17%
CN1CSC(=S)N(C)C1 | active: 41.5%
CC(=NCCC1=CCCCC1)c1c(O)n(-c2ccccc2)c(=O)[nH]c1=O | active: 31%
Cc1ccc2nc(NC(=O)c3cccn(Cc4ccc(Cl)cc4)c3=O)sc2c1 | 19.5%
CCOc1ccc(CN(CCc2ccc3c(c2)OCO3)Cc2cccc(OC)c2)cc1 | -1.59%
CCOc1ccc(NC(=O)Cn2cc(C(=O)c3ccccc3)c3ccccc32)cc1 | 8.39%
CC(C)C12CN3CC(C(C)C)(CN(C1)C3c1ccccn1)C2=O (stereo not given) | 17.8%
CC(=O)N1CCC(N2CCCC(C(=O)c3cccc(Cl)c3)C2)CC1 (stereo not given) | active: 77.8%
Cc1ccc(-n2c(/C=C\c3ccc(F)cc3)nc3ccccc3c2=O)cc1Cl | 8%
Cc1cccc(-c2nc(CN3C(=O)CN=C(c4ccccc4)c4ccccc43)c(C)o2)c1 | -8.44%
CCCOc1ccc(C2SCC(=O)Nc3c2c(C)nn3-c2cccc(C)c2)cc1OC (stereo not given) | 8.63%
COc1cccc(NC(=O)Cn2cc(C(=O)c3ccccc3)c3ccccc32)c1 | 1.16%
Oc1cc2c(cc1CN1CCN(c3ccccc3)CC1)OCO2 | active: 108%
Cc1cccc(Cn2cccc(C(=O)Nc3ccc4c(c3)OCCO4)c2=O)c1 | -16.6%
CCN(CC)CCSc1nc2ccccc2c(=O)n1-c1ccc(Cl)cc1 | 8.48%
Cn1cc(C(=O)OCC(=O)NC2CCCCC2)c2ccccc21 | active: 39.1%
O=C1NC(=O)[C@]2(Cc3ccccc3N3CCN(c4ccccc4)CC32)C(=O)N1Cc1ccccc1 (stereo not given in full) | active: 39.8%

SMILES | inhibition
CCOC(=O)C1(CCc2ccccc2)CCN(Cc2cccc3c2OCO3)CC1 | active: 47.3%
CC1CCN(CC#CCOc2ccc(Cl)cc2)CC1 | active: 86.3%
Cc1ccc(Cn2cccc(C(=O)Nc3ccc4c(c3)OCO4)c2=O)cc1 | -14.9%
Cc1cccc(CNCCc2c[nH]c3ccccc23)c1 | active: 46.8%
Cc1cccc(OCC(=O)N2CCN(CCc3ccccn3)CC2)c1 | 22.6%
O=C(Nc1ccc(F)c([N+](=O)[O-])c1)c1cccn(Cc2ccccc2)c1=O | -1.15%
COc1ccccc1N1CCN(Cc2ccccc2)CC1 | active: 96.6%
COC(=O)C1=C(c2c(C)noc2C)C[C@@H]2CC[C@H]1N2C(=O)NC(C)C | active: 41.8%
CCCN1CCO[C@@H]2c3cc(O)ccc3OC[C@H]21 | active: 72.2%
Cc1ccc(-n2c(=O)[nH]c3ccc(Br)cc3c2=O)cc1 | 4.56%
CC1(C)CSC(=NCc2ccccc2)N1 | active: 55.7%
Cc1cccc(CN2CC=C(c3noc(CCC(=O)Nc4ccc(C)c(F)c4)n3)CC2)c1 | 2.73%
COCCOC(=O)c1c(N)n(Cc2ccccc2)c2nc3ccccc3nc12 | active: 36.2%
COc1ccc(NC(=O)c2sc3nc4c(cc3c2N)N2CCC4CC2)cc1OC | -0.131%
Cc1ccc2c(c1)C(Cc1nc3ccccc3c(=O)n1-c1ccc(Br)cc1)C(=O)N2 (stereo not given) | -4.58%
CN1CC(C(=O)c2ccccc2)C(c2ccccc2)C1 (stereo not given) | active: 35.1%
O=C(COc1ccccc1F)N1CCN(Cc2cc(=O)n3nc(-c4ccccc4Cl)sc3n2)CC1 | 5.14%
CSc1ccccc1C(=O)C1CCCN(Cc2ccn[nH]2)C1 (stereo not given) | active: 48.4%
O=C(COc1cc(Cl)ccc1Cl)Nc1ccc(Cl)cc1C(=O)c1ccccc1 | -15.3%
CCCN1CCCC(C(=O)c2cc(C)c(OC)c(C)c2)C1 (stereo not given) | active: 86.3%
